# This is one part of the list.
# B1: Clec2 (Mus musculus), Q9JL99 (protein)
# chain: MQDEDGYITLNIKPRKQALSSAEPASSWWRVMALVLLISSMGLVVGLVALGIMSVTQQKYLLAEKENLSATLQQLAKKFCQELIRQSEIKTKSTFEHKCSPCATKWRYHGDSCYGFFRRNLTWEESKQYCTEQNATLVKTASQSTLDYIAERITSVRWIGLSRQNSKKDWMWEDSSVLRKNGINLSGNTEENMNCAYLHNGKIHPASCKERHYLICERNAGMTRVDQLL
# Experiments:
# Test in all cases: glycan array binding signal (z-score within array); higher = stronger binding
# Conditions in all cases: glycan notation: IUPAC condensed, linker removed
# [1] = molecular target: Gal(b1-3)GlcNAc(b1-2)Man(a1-3)[Gal(b1-3)GlcNAc(b1-2)Man(a1-6)]Man(b1-4)GlcNAc(b1-4)GlcNAc
# Summary of the method: (§1)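 Negative Z-scores can be read as non-binding. The Z-score is calculated within each array and then averaged across arrays of one protein sequence at different concentrations or buffers and across linkers. Arrays, 3228 in all, were curated from the Consortium for Functional Glycomics database and kept only where the protein sequence was available.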
# [2] = molecular target: Gal(b1-3)GlcNAc(b1-2)Man(a1-3)[Gal(b1-3)GlcNAc(b1-2)Man(a1-6)]Man(b1-4)GlcNAc(b1-4)[Fuc(a1-6)]GlcNAc
# Summary of the method: as §1
# [3] = molecular target: Gal(b1-3)GlcNAc(b1-2)Man(a1-3)[GlcNAc(b1-4)][Gal(b1-3)GlcNAc(b1-2)Man(a1-6)]Man(b1-4)GlcNAc(b1-4)GlcNAc
# Summary of the method: as §1
# [4] = molecular target: Gal(b1-3)GlcNAc(b1-2)[Gal(b1-3)GlcNAc(b1-6)]Man(a1-6)[Gal(b1-3)GlcNAc(b1-2)Man(a1-3)]Man(b1-4)GlcNAc(b1-4)GlcNAc
# Summary of the method: as §1
# [5] = molecular target: Gal(b1-3)GlcNAc(b1-3)Gal(b1-3)GlcNAc
# Summary of the method: as §1
# [6] = molecular target: Gal(b1-3)GlcNAc(b1-3)Gal(b1-4)Glc
# Summary of the method: as §1
# [7] = molecular target: Gal(b1-3)GlcNAc(b1-3)Gal(b1-4)GlcNAc
# Summary of the method: as §1
# [8] = molecular target: Gal(b1-3)GlcNAc(b1-3)Gal(b1-4)GlcNAc(b1-2)Man(a1-3)[Gal(b1-3)GlcNAc(b1-3)Gal(b1-4)GlcNAc(b1-2)Man(a1-6)]Man(b1-4)GlcNAc(b1-4)GlcNAc
# Summary of the method: as §1
# [9] = molecular target: Gal(b1-3)GlcNAc(b1-3)Gal(b1-4)GlcNAc(b1-2)[Gal(b1-3)GlcNAc(b1-3)Gal(b1-4)GlcNAc(b1-6)]Man(a1-6)[Gal(b1-3)GlcNAc(b1-3)Gal(b1-4)GlcNAc(b1-2)Man(a1-3)]Man(b1-4)GlcNAc(b1-4)[Fuc(a1-6)]GlcNAc
# Summary of the method: as §1
# [10] = molecular target: Gal(b1-3)GlcNAc(b1-3)Gal(b1-4)GlcNAc(b1-3)Gal(b1-4)GlcNAc(b1-2)[Gal(b1-3)GlcNAc(b1-3)Gal(b1-4)GlcNAc(b1-3)Gal(b1-4)GlcNAc(b1-6)]Man(a1-6)[Gal(b1-3)GlcNAc(b1-3)Gal(b1-4)GlcNAc(b1-3)Gal(b1-4)GlcNAc(b1-2)Man(a1-3)]Man(b1-4)GlcNAc(b1-4)[Fuc(a1-6)]GlcNAc
# Summary of the method: as §1
# [11] = molecular target: Gal(b1-3)GlcNAc(b1-3)Gal(b1-4)GlcNAc(b1-6)[Gal(b1-3)GlcNAc(b1-3)]Gal(b1-4)Glc
# Summary of the method: as §1
# [12] = molecular target: Gal(b1-3)GlcNAc(b1-3)Gal(b1-4)[Fuc(a1-3)]GlcNAc
# Summary of the method: as §1
# [13] = molecular target: Gal(b1-3)GlcNAc(b1-3)Gal(b1-4)[Fuc(a1-3)]GlcNAc(b1-6)[Gal(b1-3)GlcNAc(b1-3)]Gal(b1-4)Glc
# Summary of the method: as §1
# [14] = molecular target: Gal(b1-3)GlcNAc(b1-3)GalNAc
# Summary of the method: as §1
# [15] = molecular target: Gal(b1-3)GlcNAc(b1-6)Gal(b1-4)GlcNAc
# Summary of the method: as §1
# [16] = molecular target: Gal(b1-3)GlcNAc(b1-6)GalNAc
# Summary of the method: as §1
# [17] = molecular target: Gal(b1-3)GlcNAc(b1-6)[Gal(b1-3)]GalNAc
# Summary of the method: as §1
# Gal(b1-3)GlcNAc6S = molecular target: Gal(b1-3)GlcNAc6S
# Summary of the method: as §1
# [18] = molecular target: Gal(b1-3)[Fuc(a1-4)]GlcNAc
# Summary of the method: as §1
# [19] = molecular target: Gal(b1-3)[Fuc(a1-4)]GlcNAc(b1-2)Man
# Summary of the method: as §1
# [20] = molecular target: Gal(b1-3)[Fuc(a1-4)]GlcNAc(b1-2)Man(a1-3)[Gal(b1-3)[Fuc(a1-4)]GlcNAc(b1-2)Man(a1-6)]Man(b1-4)GlcNAc(b1-4)[Fuc(a1-6)]GlcNAc
# Summary of the method: as §1
# [21] = molecular target: Gal(b1-3)[Fuc(a1-4)]GlcNAc(b1-3)Gal(b1-3)[Fuc(a1-4)]GlcNAc
# Summary of the method: as §1
# [22] = molecular target: Gal(b1-3)[Fuc(a1-4)]GlcNAc(b1-3)Gal(b1-4)[Fuc(a1-3)]GlcNAc
# Summary of the method: as §1
# [23] = molecular target: Gal(b1-3)[Fuc(a1-4)]GlcNAc(b1-6)GalNAc
# Summary of the method: as §1
# [24] = molecular target: Gal(b1-3)[GlcNAc(b1-6)]GalNAc
# Summary of the method: as §1
# [25] = molecular target: Gal(b1-3)[Neu5Ac(a2-6)]GalNAc
# Summary of the method: as §1
# [26] = molecular target: Gal(b1-3)[Neu5Ac(a2-6)]GlcNAc(b1-4)Gal(b1-4)Glc
# Summary of the method: as §1
# [27] = molecular target: Gal(b1-3)[Neu5Ac(b2-6)]GalNAc
# Summary of the method: as §1
# Gal(b1-4)Gal = molecular target: Gal(b1-4)Gal
# Summary of the method: as §1
# [28] = molecular target: Gal(b1-4)GalNAc(a1-3)[Fuc(a1-2)]Gal(b1-4)GlcNAc
# Summary of the method: as §1
# [29] = molecular target: Gal(b1-4)GalNAc(b1-3)[Fuc(a1-2)]Gal(b1-4)GlcNAc
# Summary of the method: as §1
# Gal(b1-4)Glc = molecular target: Gal(b1-4)Glc
# Summary of the method: as §1
# Gal(b1-4)Glc6S = molecular target: Gal(b1-4)Glc6S
# Summary of the method: as §1
# Gal(b1-4)GlcNAc = molecular target: Gal(b1-4)GlcNAc
# Summary of the method: as §1
# [30] = molecular target: Gal(b1-4)GlcNAc(a1-6)Gal(b1-4)GlcNAc
# Summary of the method: as §1
# Gal(b1-4)GlcNAc(b1-2)Man = molecular target: Gal(b1-4)GlcNAc(b1-2)Man
# Summary of the method: as §1
# [31] = molecular target: Gal(b1-4)GlcNAc(b1-2)Man(a1-3)Man(b1-4)GlcNAc(b1-4)GlcNAc
# Summary of the method: as §1
# [32] = molecular target: Gal(b1-4)GlcNAc(b1-2)Man(a1-3)[Gal(b1-4)GlcNAc(b1-2)Man(a1-6)]Man(b1-4)GlcNAc(b1-4)GlcNAc
# Summary of the method: as §1
# [33] = molecular target: Gal(b1-4)GlcNAc(b1-2)Man(a1-3)[Gal(b1-4)GlcNAc(b1-2)Man(a1-6)]Man(b1-4)GlcNAc(b1-4)[Fuc(a1-6)]GlcNAc
# Summary of the method: as §1
# [34] = molecular target: Gal(b1-4)GlcNAc(b1-2)Man(a1-3)[Gal(b1-4)GlcNAc(b1-2)Man(a1-6)][Gal(b1-4)GlcNAc(b1-4)]Man(b1-4)GlcNAc(b1-4)[Fuc(a1-6)]GlcNAc
# Summary of the method: as §1
# [35] = molecular target: Gal(b1-4)GlcNAc(b1-2)Man(a1-3)[Gal(b1-4)GlcNAc(b1-2)Man(a1-6)][GlcNAc(b1-4)]Man(b1-4)GlcNAc(b1-4)[Fuc(a1-6)]GlcNAc
# Summary of the method: as §1
# [36] = molecular target: Gal(b1-4)GlcNAc(b1-2)Man(a1-3)[GlcNAc(b1-2)Man(a1-6)]Man(b1-4)GlcNAc(b1-4)GlcNAc
# Summary of the method: as §1
# [37] = molecular target: Gal(b1-4)GlcNAc(b1-2)Man(a1-3)[GlcNAc(b1-4)][Gal(b1-4)GlcNAc(b1-2)Man(a1-6)]Man(b1-4)GlcNAc(b1-4)GlcNAc
# Summary of the method: as §1
# [38] = molecular target: Gal(b1-4)GlcNAc(b1-2)Man(a1-3)[Man(a1-6)]Man(b1-4)GlcNAc(b1-4)GlcNAc
# Summary of the method: as §1
# [39] = molecular target: Gal(b1-4)GlcNAc(b1-2)Man(a1-6)Man(b1-4)GlcNAc(b1-4)GlcNAc
# Summary of the method: as §1
binder,measurement,setting,value
B1,glycan array binding signal (z-score),[1],0.586
same,glycan array binding signal (z-score),[2],-0.411
same,glycan array binding signal (z-score),[3],0.239
same,glycan array binding signal (z-score),[4],-0.221
same,glycan array binding signal (z-score),[5],-0.763
same,glycan array binding signal (z-score),[6],0.433
same,glycan array binding signal (z-score),[7],-0.539
same,glycan array binding signal (z-score),[8],-0.412
same,glycan array binding signal (z-score),[9],0.532
same,glycan array binding signal (z-score),[10],0.461
same,glycan array binding signal (z-score),[11],-0.864
same,glycan array binding signal (z-score),[12],-0.144
same,glycan array binding signal (z-score),[13],-0.993
same,glycan array binding signal (z-score),[14],-0.491
same,glycan array binding signal (z-score),[15],-0.516
same,glycan array binding signal (z-score),[16],-0.97
same,glycan array binding signal (z-score),[17],-0.405
same,glycan array binding signal (z-score),Gal(b1-3)GlcNAc6S,0.428
same,glycan array binding signal (z-score),[18],-0.27
same,glycan array binding signal (z-score),[19],3.5
same,glycan array binding signal (z-score),[20],0.491
same,glycan array binding signal (z-score),[21],-0.485
same,glycan array binding signal (z-score),[22],-0.61
same,glycan array binding signal (z-score),[23],-0.199
same,glycan array binding signal (z-score),[24],-0.574
same,glycan array binding signal (z-score),[25],0.483
same,glycan array binding signal (z-score),[26],0.005
same,glycan array binding signal (z-score),[27],-0.745
same,glycan array binding signal (z-score),Gal(b1-4)Gal,0.224
same,glycan array binding signal (z-score),[28],-0.859
same,glycan array binding signal (z-score),[29],-0.849
same,glycan array binding signal (z-score),Gal(b1-4)Glc,0.165
same,glycan array binding signal (z-score),Gal(b1-4)Glc6S,1.76
same,glycan array binding signal (z-score),Gal(b1-4)GlcNAc,-0.415
same,glycan array binding signal (z-score),[30],-0.921
same,glycan array binding signal (z-score),Gal(b1-4)GlcNAc(b1-2)Man,0.756
same,glycan array binding signal (z-score),[31],-0.472
same,glycan array binding signal (z-score),[32],-0.795
same,glycan array binding signal (z-score),[33],-0.497
same,glycan array binding signal (z-score),[34],-0.771
same,glycan array binding signal (z-score),[35],-0.989
same,glycan array binding signal (z-score),[36],-0.6
same,glycan array binding signal (z-score),[37],-0.464
same,glycan array binding signal (z-score),[38],-0.66
same,glycan array binding signal (z-score),[39],-0.597

# — the supplement of paper PMC8728848
